{"source": "patent US20220073613A1", "about": "“ACTIVATABLE MASKED ANTI-CTLA4 BINDING PROTEINS” (Xilio Development, Inc., priority 2018, published 2022)", "key": {"[1]": {"assay": "In vivo cleavage of masked antibodies in plasma of MC38 tumor-bearing mice, Western blot", "design": "species or system C57BL/6J mice", "protocol": "MC38 cells (1×10^6) were injected subcutaneously into seven-eight week old female C57BL/6J mice subcutaneously. On day 0, the mice were randomized based on tumor volume measurements and injected intraperitoneally with 200 μg of Antibody 2 constructs. Blood was collected via RO sinus on days two and four and processed with LiHep for plasma isolation. On day seven, blood was collected via cardiac puncture and process with LiHep for plasma isolation. Plasma was aliquoted and stored at −80 C until Western blot analysis. Standard samples where the masked antibody was treated in the presence or absence of protease in vitro were included as positive controls. For Western blot analysis, plasma samples were diluted in PBS, then in Laemmli Sample Buffer and βME. Samples were heated at 95° C. then loaded on a Criterion TGX Stain-free Precast gel. SDS-PAGE was performed at 200 V for forty-two minutes. Protein was transferred to nitrocellulose membrane and blocked in 1×TBS with 1% Casein Blocker for one hour at room temperature shaking. The membrane was probed with HRP-conjugated Rb mAb to human Kappa Light Chain [clone EPR5367-8], diluted 1:10,000 in Casein Blocker, overnight at 4° C. shaking. The membrane was washed three times with PBS-Tween and developed with SuperSignal ELISA Pico Chemiluminescent Substrate. Raw data was analyzed with ImageLab software.\nIn vivo experiment was performed in two cohorts across two weeks, with Antibody 2-14 included in both cohorts. Antibodies that were tested include Antibody 2-14, Antibody 2-15, Antibody 2-16, Antibody 2-17, Antibody 2-18, Antibody 2-19, Antibody 2-20, and Antibody 2-21. Antibody 2-15 includes a cleavable peptide sequence that is non-cleavable, for use as a negative control."}, "[2]": {"assay": "In vivo cleavage detection in tumor, liver, kidney, spleen and plasma (western blot) and CTLA4 binding of recovered antibody", "design": "species or system B-hCTLA-4 transgenic mice", "conditions": "for percentage (%) of product cleaved: SDS-PAGE densometric intensity, three lanes", "protocol": "B-hCTLA-4 transgenic female mice were purchased from Biocytogen and were 8-10 weeks old at the start of study. MC38 colorectal tumor cells (5×10^5 cells per mouse), MB49 bladder cancer cells (1×10^6 cells per mouse) or MCA205 fibrosarcoma cells (1×10^6 cells per mouse) were subcutaneously into the right flank of each mouse. Upon reaching ˜250-500 mm^3 sized tumors (day 0), the mice received a single 10 mg/kg intraperitoneal dose of indicated antibodies. Tumor, liver, kidney, spleen and plasma harvested on day 4 for analysis of cleavage by western blot.\nFor plasma samples, a direct western blot approach is utilized by separating equal volumes of denatured plasma (1-2 μL input) on a gradient criterion precast gel (BioRad). Separated proteins were then transferred into a nitrocellulose membrane using Turbo Transblot system (BioRad). Membranes were than developed using standard methods for anti-human kappa light chain reactivity with an HRP conjugated antibody (ab202549). Cleavage is assessed visually as the cleaved light chain migrates lower than the un-cleaved light chain with a mass difference of 2 kD.\nProtein lysates from tumor, liver, spleen and kidney were generated using Tissue Lyser II (Qiagen) bead homogenizer in RIPA buffer (Pierce, 87788) supplemented with protease and phosphatase inhibitors (Thermo Fisher, 78442). Protein concentrations were determined by BCA assay and 3 mgs of tissue lysate was subjected to immunoprecipitation with biotin conjugated anti-human kappa light chain antibody (LSBio, LS-C351451-500) and streptavidin magnetic beads (Pierce, 88816). Proteins were eluted in 50 μL 10 mM Glycine (pH 2) and neutralized with 1M Tris (pH 8) prior to western blot detection of human kappa light chain as described above.\nStudies were also carried out where IgG levels of each antibody administered to MB49-bearing mice was quantified by an ELISA assay and then each sample was assayed in a 3-fold dilution series starting at 1 μg/mL for spleen or 0.04 μg/mL for kidney and liver tissue, on a CTLA4-coated MSD plate to assess CTLA4 binding. These studies included a non-masked parental antibody (Antibody 2-6), masked and cleavable antibodies (e.g., Antibody 2-14 and Antibody 2-16), and a masked but non-cleavable antibody (Antibody 2-10). FIG. 24D is an SDS-PAGE analysis showing the percentage (%) of product cleaved for Antibody 2-14. […] FIG. 24F depicts a heat map of the in vitro cleavage of cleavable peptide substrates by a panel of exemplary proteases."}, "[3]": {"test_system": "murine tumor, tissue, and plasma conditioned media", "assay": "Ex vivo cleavage in murine tumor, tissue, and plasma, CTLA4 ELISA", "type": "in vitro ADME", "protocol": "In another study, ex vivo cleavage in murine tumor, tissue, and plasma was assessed using a CTLA4 ELISA assay. This included the following murine models: C57/B16 (N=9), MC38 in wild type mice (N=9), MC38 in hCTLA4 mice (N=5), MB49 in wild type mice (N=6), MCA205 in wild type mice (N=4), and B16 in wild type mice (N=4). Cleavage in tumors, spleen, liver, kidney, and plasma was assessed. Plasma samples were pooled. Frequency of cleavage and the percentage of the molecule cleaved (median) were calculated."}, "[4]": {"test_system": "Ki67+ cells in CD4+ cells", "assay": "Pharmacodynamic effects in cynomolgus monkeys", "conditions": "cynomolgus monkey, in vivo", "protocol": "In a first set of experiments, cynomolgus monkeys were administered ipilimumab, Antibody 2-6, Antibody 2-10, or an isotype control, and pharmacodynamic (PD) effects were assessed by measuring the percentage (%) of Ki67+ cells in CD4+ cells. In a second set of experiments, cynomolgus monkeys were administered Antibody 2-6, Antibody 2-10, Antibody 2-14, Antibody 2-16, or an isotype control, and pharmacodynamic effects were assessed by measuring the percentage (%) of Ki67+ cells in CD4+ cells."}}, "note": "Values joined by “and” are separate entries in the source; they are usually repeats but may differ in a detail not shown here. Equal values may be shown once.", "data": [{"molecule": "Antibody 2-14: masked Antibody 2-6: mask CPGKGLPSC, cleavable peptide VPLSLY; SEQ ID NO: 358 and 421 (protein) light: ACPGKGLPSCGGGSSGGSGVPLSLYSGGEIVLTQSPDFQSVTPKEKVTITCSANSALSYMYWYQQKPDQSPKLWVHGTSNLASGVPSRFSGSGSGTDFTLTINSLEAEDAATYYCHHWSNTQWTFGGGTKVEIKRTVAAPSVFIFPPSDEQLKSGTASVVCLLNNFYPREAKVQWKVDNALQSGNSQESVTEQDSKDSTYSLSSTLTLSKADYEKHKVYACEVTHQGLSSPVTKSFNRGEC heavy: QVQLVQSGAEVKKPGSSVKVSCKASGYTFTNYFMNWVRQAPGQGLEWMGRVDPEQGRADYAEKFKKRVTITADKSTSTAYMELSSLRSEDTAVYYCARRAMDNYGFAYWGQGTLVTVSS[human IgG1 constant region with changes left out here]", "values": [{"measurement": "activation percentage in MC38-bearing mice as compared to healthy non-tumor-bearing mice", "setting": "[1]; 2-way ANOVA", "result": "significantly greater"}, {"measurement": "activation in vivo (cleavage in plasma)", "setting": "[1]; MC38-bearing mice, 200 μg i.p., days 2, 4, 7", "result": "activated in vivo"}, {"measurement": "binding to CTLA4 of antibody isolated from plasma, kidney, liver, or spleen", "setting": "[2]; MB49-bearing B-hCTLA4 transgenic mice, CTLA4-coated MSD plate", "result": "binding comparable to Antibody 2-6 in liver and spleen and greater binding than Antibody 2-10 in plasma, kidney, liver, and spleen"}, {"measurement": "cleavage products in liver tissue", "setting": "[2]; MB49 bladder cancer, single 10 mg/kg i.p., day 4", "result": "strongly detected"}, {"measurement": "cleavage products in liver tissue", "setting": "[2]; MC38 colorectal cancer, single 10 mg/kg i.p., day 4", "result": "strongly detected"}, {"measurement": "cleavage products in tumors and in liver tissue", "setting": "[2]; MCA205 fibrosarcoma, single 10 mg/kg i.p., day 4", "result": "strongly detected"}, {"measurement": "percentage (%) of product cleaved", "setting": "[2]; kidney", "result": "64% and 60% and 54%"}, {"measurement": "percentage (%) of product cleaved", "setting": "[2]; liver", "result": "75% and 59% and 77%"}, {"measurement": "percentage (%) of product cleaved", "setting": "[2]; plasma", "result": "28% and 39% and 35%"}, {"measurement": "percentage (%) of product cleaved", "setting": "[2]; spleen", "result": "69% and 73% and 72%"}, {"measurement": "Percentage (%) cleaved molecule", "setting": "[3]; B16-wt, Kidney (n = 4)", "result": 16, "unit": "%"}, {"measurement": "Percentage (%) cleaved molecule", "setting": "[3]; B16-wt, Liver (n = 4)", "result": 2, "unit": "%"}, {"measurement": "Percentage (%) cleaved molecule", "setting": "[3]; B16-wt, Plasma (n = 1)", "result": 0, "unit": "%"}, {"measurement": "Percentage (%) cleaved molecule", "setting": "[3]; B16-wt, Spleen (n = 4)", "result": 2, "unit": "%"}, {"measurement": "Percentage (%) cleaved molecule", "setting": "[3]; B16-wt, Tumor (n = 4)", "result": 0, "unit": "%"}, {"measurement": "Percentage (%) cleaved molecule", "setting": "[3]; C57/B16-wt, Kidney (n = 9)", "result": 7, "unit": "%"}, {"measurement": "Percentage (%) cleaved molecule", "setting": "[3]; C57/B16-wt, Liver (n = 9)", "result": 2, "unit": "%"}, {"measurement": "Percentage (%) cleaved molecule", "setting": "[3]; C57/B16-wt, Plasma (n = 2)", "result": 6, "unit": "%"}, {"measurement": "Percentage (%) cleaved molecule", "setting": "[3]; C57/B16-wt, Spleen (n = 9)", "result": 3, "unit": "%"}, {"measurement": "Percentage (%) cleaved molecule", "setting": "[3]; MB49-wt, Kidney (n = 6)", "result": 9, "unit": "%"}, {"measurement": "Percentage (%) cleaved molecule", "setting": "[3]; MB49-wt, Liver (n = 6)", "result": 0, "unit": "%"}, {"measurement": "Percentage (%) cleaved molecule", "setting": "[3]; MB49-wt, Spleen (n = 6)", "result": 3, "unit": "%"}, {"measurement": "Percentage (%) cleaved molecule", "setting": "[3]; MB49-wt, Tumor (n = 6)", "result": 1, "unit": "%"}, {"measurement": "Percentage (%) cleaved molecule", "setting": "[3]; MC38-hCTLA4, Kidney (n = 5)", "result": 25, "unit": "%"}, {"measurement": "Percentage (%) cleaved molecule", "setting": "[3]; MC38-hCTLA4, Liver (n = 5)", "result": 2, "unit": "%"}, {"measurement": "Percentage (%) cleaved molecule", "setting": "[3]; MC38-hCTLA4, Plasma (n = 1)", "result": 1, "unit": "%"}, {"measurement": "Percentage (%) cleaved molecule", "setting": "[3]; MC38-hCTLA4, Spleen (n = 5)", "result": 7, "unit": "%"}, {"measurement": "Percentage (%) cleaved molecule", "setting": "[3]; MC38-hCTLA4, Tumor (n = 5)", "result": 0, "unit": "%"}, {"measurement": "Percentage (%) cleaved molecule", "setting": "[3]; MC38-wt, Kidney (n = 9)", "result": 8, "unit": "%"}, {"measurement": "Percentage (%) cleaved molecule", "setting": "[3]; MC38-wt, Liver (n = 9)", "result": 2, "unit": "%"}, {"measurement": "Percentage (%) cleaved molecule", "setting": "[3]; MC38-wt, Plasma (n = 1)", "result": 1, "unit": "%"}, {"measurement": "Percentage (%) cleaved molecule", "setting": "[3]; MC38-wt, Spleen (n = 9)", "result": 4, "unit": "%"}, {"measurement": "Percentage (%) cleaved molecule", "setting": "[3]; MC38-wt, Tumor (n = 9)", "result": 1, "unit": "%"}, {"measurement": "Percentage (%) cleaved molecule", "setting": "[3]; MCA205-wt, Liver (n = 4)", "result": 0, "unit": "%"}, {"measurement": "Percentage (%) cleaved molecule", "setting": "[3]; MCA205-wt, Plasma (n = 1)", "result": 0, "unit": "%"}, {"measurement": "Percentage (%) cleaved molecule", "setting": "[3]; MCA205-wt, Spleen (n = 4)", "result": 0, "unit": "%"}, {"measurement": "Percentage (%) cleaved molecule", "setting": "[3]; MCA205-wt, Tumor (n = 4)", "result": 2, "unit": "%"}, {"measurement": "Frequency of cleavage", "setting": "[3]; kidney conditioned media of B16-wt", "result": 100, "unit": "%"}, {"measurement": "Frequency of cleavage", "setting": "[3]; kidney conditioned media of MB49-wt", "result": 100, "unit": "%"}, {"measurement": "Frequency of cleavage", "setting": "[3]; kidney conditioned media of MC38-hCTLA4", "result": 100, "unit": "%"}, {"measurement": "Frequency of cleavage", "setting": "[3]; kidney conditioned media of MC38-wt", "result": 100, "unit": "%"}, {"measurement": "Frequency of cleavage", "setting": "[3]; kidney conditioned media of MCA205-wt", "result": 100, "unit": "%"}, {"measurement": "Frequency of cleavage", "setting": "[3]; tumor conditioned media of MB49-wt", "result": 17, "unit": "%"}, {"measurement": "Frequency of cleavage", "setting": "[3]; tumor conditioned media of MCA205-wt", "result": 25, "unit": "%"}, {"measurement": "peripheral PD effects, percentage (%) of Ki67+ cells in CD4+ cells", "setting": "[4]", "result": "reduced PD effects as compared to the unmasked parental Antibody 2-6"}]}]}
